Measurements published in PubChem BioAssay AID1508624 (National Center for Advancing Translational Sciences (NCATS), 2021).
Among all 48,000 compounds or so, about 120 (0.25%) were called active. Not shown: some 4% with an inconclusive outcome. Calls follow the shape of the dose curve; as a rule, active = well fitted activation curve with a large enough effect; inconclusive = small, poorly fitted or top-dose-only effect, or another doubt; inactive = no such curve, though single readings can be large or run the other way. Some of the results follow.

Experiment: Primary qHTS for Identification of Small Molecule Activators of Huntingtin-Antisense Promoter Activity; also: nearly all actives have a fitted effect of over 55% in size
Settings: HEK293 HTT-AS promoter firefly luciferase reporter, 24 h; series mostly up to 57.5 µM; activity change, positive = activation: at the top concentration
Outline: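 Luminescence was read after Dual-Glo reagent and a 10 min room-temperature incubation. Values were normalized to vehicle (0% activity) and zero RLU (-100% activity). Reporter HEK293 cells had been exposed to compounds (up to 57.5 uM final) for 24 h.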

Activity change, positive = activation, inactive:
CC(=O)c1ccc(NC(=O)Cn2c(=O)n(Cc3ccco3)c(=O)c3sc4ccccc4c32)cc1 -14.4%, Cc1nn2c(=O)cc(COC(=O)CNC(=O)c3ccc(F)cc3)nc2s1 -4.64%, COc1ccc(C2=NC(C)(C)N(CC(=O)Nc3ccc(F)c(F)c3)C2=O)cc1 -25.1%, CCN1CCN(c2cc(C)c3cc(NC(=O)c4cc(Cl)ccc4OC)ccc3n2)CC1 -8.98%, Cc1ccc(-n2ncc(C(=O)NCCCN3CCCCC3)c2C2CCN(C(=O)OC(C)(C)C)CC2)cc1 -21.4%, COc1cccc(OC)c1C(=O)Nc1ccc(S(=O)(=O)Nc2nccc(C)n2)cc1 -5.58% [at 11.5 µM, percent change from vehicle, -100% = no light], CCOC(=O)c1c(C)n(-c2ccccc2)c2ccc(OC(=O)c3ccccc3NC(=O)C(C)(C)C)cc12 -66.3%, Cc1ccc(NC(=O)c2c(C)nc3sc(C(=O)Nc4ccc(F)cc4)c(N)c3c2-c2ccccc2Cl)c(C)c1 0%, COc1ccccc1NS(=O)(=O)c1cc2c(cc1Cl)NC(=O)CO2 -24.2%, O=C1CN(C(=O)Nc2ccccc2C(F)(F)F)C(c2ccccc2)c2c(sc3c2CCCC3)N1 (stereo not given) -40.3%, CCOc1ccc(CCNC(=O)CSc2cc(=O)n(C)c3ccc(Cl)cc23)cc1OCC -19.1%, CCCc1cnc2c(c1SCc1ccc(C(F)(F)F)cc1)c(=O)n(C)c(=O)n2C -35.6%, CC(C)Oc1ccc(CNC(=O)c2ccc(Cn3c(=O)c4cccn4c4cccnc43)cc2)cc1 -9.13%, CCN1C(=O)C2(c3ccccc31)c1c(oc3ccc(F)cc3c1=O)C(=O)N2CCCOC (stereo not given) -12.8%, Cc1ccc(NC(=O)CSc2ccc(-c3sc(-c4ccccc4)nc3C)nn2)cc1F -1.92%, Cc1cccc(N2CCN(C(=O)CCSCc3ccccc3F)CC2)c1C 14%, COc1ccccc1N1CCN(C(=O)Cn2ncc3c(=O)oc4ccc(C)cc4c32)CC1 -8.79%, CN(C)S(=O)(=O)c1ccc(C(=O)Nc2ccc(-n3nncc3-c3ccccc3)cc2)cc1 -20.4%, CCOc1ccc(S(=O)(=O)N(CC(=O)NCCc2ccc(OC)c(OC)c2)c2ccccc2)cc1 -46.1%, COc1ccc(NC(=O)CN2C(=O)CSc3ccc(S(=O)(=O)N4CCCC4)cc32)cc1OC 0%, Cc1ccccc1Cn1c(CN2CCC(C(=O)NCCN(C)C)CC2)cc2ccccc21 -11.8%, Cc1ccccc1NC(=O)CN1C(=O)C(C)(C)c2ccccc21 6.87% [at 11.5 µM, percent change from vehicle, -100% = no light], COc1cccc(NC(=O)c2cc3c(=O)n(C)c4ccccc4c3n2C)c1 1.88%, CCCCNC(=O)c1cnn2c(C)c(Cc3c(F)cccc3Cl)c(C)nc12 0%, O=C1c2c(O)cccc2[C@@H]([C@@H]2O[C@H](CO)[C@@H](O)[C@H](O)[C@H]2O)c2cc(CO)cc(O)c21 -9.73%, COc1ccc(OC)c(CCNC(=O)c2c(C)oc3ncn(C)c(=O)c23)c1 -1.16%, Cc1cccc(C)c1NC(=O)Cn1c(=O)n(CCC(=O)NCc2ccccc2Cl)c(=O)c2sccc21 4.47%, O=C(O)c1cc(-c2ccc(C(F)(F)F)cc2)nc2n[nH]c(-c3ccccc3)c12 20.1%, CCc1ccc(S(=O)(=O)c2cn(CC)c3cc(N4CCOCC4)c(F)cc3c2=O)cc1 -26%, CC(=O)c1ccc(NC(=O)Cn2cc3c(n2)CCCC3)cc1 -12.3%, CCOc1ccc(CN2CCN(c3ncnc4sc5c(c34)CC(C)CC5)CC2)cc1 (stereo not given) -4.59% [at 11.5 µM, percent change from vehicle, -100% = no light], COc1ccccc1C(=O)Nc1nnc(S(=O)(=O)N(C)c2ccc(Cl)cc2)s1 1.96%, COc1ccc(Cl)cc1NC(=O)c1ccc2c(c1)CCCN2S(C)(=O)=O 6.35%, CCOc1ccc2c(c1)c(=O)c(S(=O)(=O)c1ccccc1)cn2CC(=O)Nc1ccccc1OC -3.5%, Cc1ccc(CNC(=O)C2CCN(S(=O)(=O)c3ccc4c(c3)CCCN4C(=O)C3CCC3)CC2)cc1 -44.5%, Cc1nc(-c2ccccc2)sc1CCNS(=O)(=O)c1ccccc1 -7.87%, O=C(NCCSc1c(-c2ccccc2)[nH]c2ccccc12)c1ccc(S(=O)(=O)N2CCOCC2)cc1 -29.3%, COC(=O)c1ccc(NC(=O)CSc2nc(=O)[nH]c3c2CCCC3)cc1 -11.6%, CCOC(=O)COc1ccc([N+](=O)[O-])cc1-c1ccnc2cc(-c3ccc(Cl)cc3)nn12 -4.58%, CCc1ccc(CN(Cc2ccco2)c2cnc(S(C)(=O)=O)nc2C(=O)Nc2cccc(C)c2)cc1 -25.5%, CN(C)c1ccc(C(CNC(=O)c2ccccc2)N2CCc3ccccc32)cc1 (stereo not given) 9.21%, CCC1=Nc2cc(C(=O)NCCCOC)ccc2Sc2ccc(Br)cc21 -40.2%, CC(C)CC(=O)Nc1cccc(-c2nc3ccccc3[nH]2)c1 20.3%, Cc1cccc(-c2noc(-c3ccccc3OCC(=O)Nc3ccc([N+](=O)[O-])cc3)n2)c1 -4.89%, COc1ccccc1CNc1nc(-c2ccco2)nn1S(=O)(=O)c1ccc2ccccc2c1 -7.86%, COCCCNC(=O)c1oc2c(c1C)-c1nn(Cc3ccccc3Cl)cc1CC2 -35.7%, CNC(=O)C1CCC(Cn2c(=O)c3sccc3n(CC(=O)NCc3ccccc3)c2=O)CC1 (stereo not given) -16.1%, Cc1ccccc1C(=O)Nc1sc2c(c1C(=O)NCc1ccco1)CCC(C(C)(C)C)C2 (stereo not given) -18.3%, Cc1ccc(SCCNC(=O)CN(c2ccccc2)S(=O)(=O)N(C)C)cc1 -16.7%, Cc1ccc(Cl)cc1NC(=O)c1cnc(N2CCCCC2)c2ccccc12 -20.9%, O=C(Cn1c(SCC(=O)Nc2ccc(F)cc2)nc2ccccc21)NCc1ccc(F)cc1 -6.93%, N#Cc1ccc(C(=O)Nc2cc3nn(-c4ccccc4)nc3cc2Cl)c(F)c1 13.4%, CCOC(=O)C1CCN(S(=O)(=O)c2cc(Br)cc3c2N(C(=O)CC)CC3)CC1 -10.4%, CCCC(=O)NCC1(N(C)C)CCCCC1 -2.52%, COc1ccc(NC(=O)C(=O)NCCc2csc(-c3ccc(Cl)cc3)n2)cc1OC -5.78%, COc1ccccc1NC(=O)C(=O)NCC(c1ccc2c(c1)OCO2)N1CCN(C)CC1 (stereo not given) -2.99%, CCN1CCN(c2ncc3c(n2)CCN(Cc2cc(F)cc(F)c2)C3)CC1 -21.5%, COc1ccc(-c2nc3scc(CCNS(=O)(=O)c4ccc(C)cc4)n3n2)cc1 -27.8%, Cn1c(=NC(=O)c2ccc(S(=O)(=O)N3CCCc4ccccc43)cc2)sc2cc(F)ccc21 -24.1%, CCCCCCCC/C=C/C(=O)O -1.61%, CC(C)OCCCn1c(=O)c2ccccc2n2c(-c3ccc(F)cc3)nnc12 -6.96%, COc1ccc(S(=O)(=O)N(CC(=O)Nc2ccccc2Br)Cc2ccccc2)cc1 -23.7%, Cc1cccc(C(=O)Nc2c(-c3ccccc3)nc3cc(C)ccn23)c1 -2.02%, Cc1ccc(S(=O)(=O)NC(=O)NC2CCCC2)cc1 -3.36%, Cc1ccc(CNS(=O)(=O)c2cc3[nH]c(=O)c(=O)[nH]c3cc2C)cc1 -9.56%, Cc1c(C(=O)NCc2cccc(Cl)c2)sc2nc3n(c(=O)c12)CCC3 -1.96%, Cc1cn2c(=O)cc(COc3ccccc3NC(=O)c3ccco3)nc2s1 -0.526%, Cc1ccc(S(=O)(=O)NC2(C(F)(F)F)C(=O)Nc3c2c(=O)[nH]c(=O)n3-c2ccccc2)cc1 (stereo not given) -3.4%, NC(=O)c1nc(-c2ccc(F)c(F)c2)nc2c1[nH]c(=O)n2-c1cccc(Cl)c1 -16%, CCN1CCN(CCCNC(=O)c2cnn(-c3ccc(C)cc3C)c2C2CCN(C(=O)OC(C)(C)C)CC2)CC1 -29.8%, O=S(=O)(c1ccc(Br)cc1)c1nnn2c1nc(N1CCOCC1)c1sccc12 0.496%, Cc1ccc(C(=O)Nc2ccc3nc(SCC(=O)N4CCCc5ccccc54)sc3c2)cc1 -10.5%, O=C(COC(=O)c1cc(-c2ccccc2)nc2ccccc12)c1ccc(Br)cc1 -3.61%, CSc1nc2sc3c(c2c(=O)n1Cc1ccccc1)CCC(C(C)(C)C)C3 (stereo not given) -23.6%, CCOc1cc(C(=O)OCc2cc(=O)n3nc(CC)sc3n2)cc(OCC)c1OCC 6.75%, CCC(=O)N1CCc2cc(Br)cc(S(=O)(=O)N3CCCC(C(=O)Nc4ccc(C(C)C)cc4)C3)c21 (stereo not given) -17.6%, CC1CCC(C(=O)NC(C(=O)OCC(=O)c2ccccc2)C(C)C)CC1 (stereo not given) -22.3%, CCc1cnc2c(c1SCC(=O)c1ccccc1)c(=O)n(C)c(=O)n2C -10.3%, CCOc1sc2nc(C)n(CC(=O)Nc3cccc(C)c3)c(=O)c2c1C 3.2%, Cc1scc2c1N(C(=O)CN1CCN(C)CC1)c1ccccc1NC2=O -5.46%, COc1ccc(-c2ccc(NS(=O)(=O)c3ccc(OC)c(OC)c3)cc2)nn1 -12.1%, COC(=O)c1ccccc1NC(=O)c1c(C)oc2ncn(C)c(=O)c12 -11.3%, COc1ccc(OCc2nc3ccccc3n2Cc2ccccc2Cl)cc1 -15.6%, CCCCC(=O)N(c1ccc2oc(C)c(C(C)=O)c2c1)S(=O)(=O)c1ccc(F)cc1C -28.9%, O=C(CSc1nnc(-c2cccc(F)c2)c(-c2cccc(F)c2)n1)NC1CCCCC1 -7.46%, O=C(Cn1ncc2c(=O)oc3ccccc3c21)N1CCN(c2ccc(Cl)cc2)CC1 5.77%, COc1cccc(CSc2nc(-c3ccccc3F)nc3c2Cc2c(CO)cnc(C)c2O3)c1 -10.1%, COc1ccc(-n2nc3c(N4CCC(C(=O)NCCc5ccccc5)CC4)nnc(C)c3c2C)cc1 -18.7%, COc1ccc2cc(CNc3ccc(C)cc3)c(=O)n(CC(=O)Nc3cccc(Cl)c3C)c2c1 2.1%, COc1cc(Cl)c(C)cc1NC(=O)c1cnn(-c2ccc(F)cc2F)c1C1CCN(C(=O)OC(C)(C)C)CC1 -30%
